Source: patent US20250243260A1 (ALPINE IMMUNE SCIENCES, published 2025)
Numbering of substitutions follows the chain as printed. Names and notes keep the numbering of the source. Each block holds one binder with its values, some of them ahead of it.

Target: T1, human CD28 (endogenously expressed on primary human T cells) (human, UniProt P10747 19-220)
T1 construct: whole, on cells
Assay: flow cytometry, primary human T cells
Protocol: Binding affinity to CD28 was determined using primary human T cells which endogenously express CD28. Binding to PD-L1 was determined using SCC152 cells transduced with human PD-L1. Binding to CTLA-4 was measured using Chinese hamster ovary (CHO) cells stably transduced to express human CTLA-4.
For staining and analysis by flow cytometry, 75,000 human T cells, SCC152/PD-L1 cells, or CHO/CTLA-4 cells were plated in 96-well round-bottom plates. Cells were spun down and resuspended in staining buffer (PBS (phosphate buffered saline), 1% BSA (bovine serum albumin), 1 mM EDTA, and 0.1% sodium azide) for 20 minutes to block non-specific binding. Afterwards, cells were centrifuged, stain buffer aspirated, and then resuspended in 50 μL of a 1:5 serial dilution of each CD80-Fc candidate variant starting at 100 nM ending at 0.8 nM. Primary staining was performed on ice for 60 minutes, before washing cells in […] staining buffer three times. PE-conjugated anti-human Fc (Jackson ImmunoResearch, USA) was diluted 1:250 in 50 μL staining buffer and added to cells and incubated another 30 minutes at 4° C. Cells were washed two times in 150 μL stain buffer and then fixed in 2% formaldehyde/PBS for 5 minutes at room temperature. Samples were analyzed CytoFLEX LX flow cytometer (Beckman Coulter, USA). Median Fluorescence Intensity (MFI) was calculated for each cell type using the CytExpert software from Beckman Coulter.

B2: CD80_190-Fc, variant CD80 IgV-Fc T28Y/M47L (Fc fusion)
chain: VIHVTKEVKEVATLSCGHNVSVEELAQYRIYWQKEKKMVLTMMSGDLNIWPEYKNRTIFDITNNLSIVILALRPSDEGTYECVVLKYEKDAFKREHLAEVTLSVKADGSGGGGS[omitted - human IgG4 Fc with S228P (EU numbers)]
notes: variant IgV - GSGGGGS - human IgG4 Fc (S228P)
- MFI (anti-human Fc) at 0.8 nM: 359 MFI
- MFI (anti-human Fc) at 4 nM: 600 MFI
- MFI (anti-human Fc) at 20 nM: 1030 MFI
- MFI (anti-human Fc) at 100 nM: 1570 MFI
- fold change of MFI vs WT CD80 at 20 nM: 5.7 fold

B4: CD80_200-Fc, variant CD80 IgV-Fc K9N/E10R/H18V/T28Y/A71G (Fc fusion)
chain: B2 chain with K9N, E10R, H18V, L47M, A71G
notes: as for B2
- MFI (anti-human Fc) at 0.8 nM: 198 MFI
- MFI (anti-human Fc) at 4 nM: 268 MFI
- MFI (anti-human Fc) at 20 nM: 372 MFI
- MFI (anti-human Fc) at 100 nM: 497 MFI
- fold change of MFI vs WT CD80 at 20 nM: 2.1 fold

B6: CD80_208-Fc, variant CD80 IgV-Fc V11Y/E35G/M42G/F59S (Fc fusion)
chain: B2 chain with V11Y, Y28T, E35G, M42G, L47M, F59S
notes: as for B2
- MFI (anti-human Fc) at 0.8 nM: 235 MFI
- MFI (anti-human Fc) at 4 nM: 283 MFI
- MFI (anti-human Fc) at 20 nM: 387 MFI
- MFI (anti-human Fc) at 100 nM: 708 MFI
- fold change of MFI vs WT CD80 at 20 nM: 2.1 fold

B7: CD80_197-Fc, variant CD80 IgV-Fc V11Y/E35D/Y87Q/T101R (Fc fusion)
chain: B2 chain with V11Y, Y28T, E35D, L47M, Y87Q, T101R
notes: as for B2
- MFI (anti-human Fc) at 0.8 nM: 218 MFI
- MFI (anti-human Fc) at 4 nM: 293 MFI
- MFI (anti-human Fc) at 20 nM: 699 MFI
- MFI (anti-human Fc) at 100 nM: 1550 MFI
- fold change of MFI vs WT CD80 at 20 nM: 3.9 fold

B8: CD80_191-Fc, variant CD80 IgV-Fc V11Y/T28Y/M47L/V68L/L85E (Fc fusion)
chain: B2 chain with V11Y, V68L, L85E
notes: as for B2
- MFI (anti-human Fc) at 0.8 nM: 268 MFI
- MFI (anti-human Fc) at 4 nM: 302 MFI
- MFI (anti-human Fc) at 20 nM: 401 MFI
- MFI (anti-human Fc) at 100 nM: 543 MFI
- fold change of MFI vs WT CD80 at 20 nM: 2.2 fold

B9: CD80_182-Fc, variant CD80 IgV-Fc E10G/V11W/E35G/M47L/A71G/Y87R (Fc fusion)
chain: B2 chain with E10G, V11W, Y28T, E35G, A71G, Y87R
notes: as for B2
- MFI (anti-human Fc) at 0.8 nM: 436 MFI
- MFI (anti-human Fc) at 4 nM: 1030 MFI
- MFI (anti-human Fc) at 20 nM: 2850 MFI
- MFI (anti-human Fc) at 100 nM: 5470 MFI
- fold change of MFI vs WT CD80 at 20 nM: 15.9 fold

B10: CD80_193-Fc, variant CD80 IgV-Fc V11Y/M42W/T62A/L85E (Fc fusion)
chain: B2 chain with V11Y, Y28T, M42W, L47M, T62A, L85E
notes: as for B2
- MFI (anti-human Fc) at 0.8 nM: 236 MFI
- MFI (anti-human Fc) at 4 nM: 249 MFI
- MFI (anti-human Fc) at 20 nM: 267 MFI
- MFI (anti-human Fc) at 100 nM: 276 MFI
- fold change of MFI vs WT CD80 at 20 nM: 1.5 fold

B12: CD80_192-Fc, variant CD80 IgV-Fc E7N/E35D/T101R (Fc fusion)
chain: B2 chain with E7N, Y28T, E35D, L47M, T101R
notes: as for B2
- MFI (anti-human Fc) at 0.8 nM: 277 MFI
- MFI (anti-human Fc) at 4 nM: 295 MFI
- MFI (anti-human Fc) at 20 nM: 423 MFI
- MFI (anti-human Fc) at 100 nM: 640 MFI
- fold change of MFI vs WT CD80 at 20 nM: 2.3 fold

Results, then the binder that gave them:

- MFI (anti-human Fc) at 0.8 nM: 186 MFI
- MFI (anti-human Fc) at 4 nM: 193 MFI
- MFI (anti-human Fc) at 20 nM: 202 MFI
- MFI (anti-human Fc) at 100 nM: 209 MFI
- fold change of MFI vs WT CD80 at 20 nM: 1.1 fold
B1: CD80_178-Fc, variant CD80 IgV-Fc V11Y/T28Y/L85E/Y87I (Fc fusion)
chain: B2 chain with V11Y, L47M, L85E, Y87I
notes: as for B2

- MFI (anti-human Fc) at 0.8 nM: 197 MFI
- MFI (anti-human Fc) at 4 nM: 201 MFI
- MFI (anti-human Fc) at 20 nM: 175 MFI
- MFI (anti-human Fc) at 100 nM: 192 MFI
- fold change of MFI vs WT CD80 at 20 nM: 1 fold
B3: CD80_189-Fc, variant CD80 IgV-Fc E10G/V11W/M47V/L85E (Fc fusion)
chain: B2 chain with E10G, V11W, Y28T, L47V, L85E
notes: as for B2

- MFI (anti-human Fc) at 0.8 nM: 186 MFI
- MFI (anti-human Fc) at 4 nM: 197 MFI
- MFI (anti-human Fc) at 20 nM: 195 MFI
- MFI (anti-human Fc) at 100 nM: 205 MFI
- fold change of MFI vs WT CD80 at 20 nM: 1.1 fold
B5: CD80_198-Fc, variant CD80 IgV-Fc H18Y/A26E/R29S/E35D/M47L/V68M/A71G/E77G/D90G (Fc fusion)
chain: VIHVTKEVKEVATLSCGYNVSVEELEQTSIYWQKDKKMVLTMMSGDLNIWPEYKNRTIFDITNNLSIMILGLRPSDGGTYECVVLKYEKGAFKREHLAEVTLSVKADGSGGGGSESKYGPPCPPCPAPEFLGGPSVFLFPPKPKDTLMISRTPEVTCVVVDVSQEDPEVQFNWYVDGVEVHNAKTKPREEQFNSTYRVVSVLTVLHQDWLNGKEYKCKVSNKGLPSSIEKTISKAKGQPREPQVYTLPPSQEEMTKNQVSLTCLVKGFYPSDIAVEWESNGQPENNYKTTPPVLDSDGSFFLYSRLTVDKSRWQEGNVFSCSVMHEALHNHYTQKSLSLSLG
notes: as for B2

- MFI (anti-human Fc) at 0.8 nM: 183 MFI
- MFI (anti-human Fc) at 4 nM: 220 MFI
- MFI (anti-human Fc) at 20 nM: 298 MFI
- MFI (anti-human Fc) at 100 nM: 446 MFI
- fold change of MFI vs WT CD80 at 20 nM: 1.7 fold
B11: CD80_186-Fc, variant CD80 IgV-Fc E7K/V11W/N63H/A71G/Y87K (Fc fusion)
chain: B2 chain with E7K, V11W, Y28T, L47M, N63H, A71G, Y87K
notes: as for B2

- MFI (anti-human Fc) at 0.8 nM: 226 MFI
- MFI (anti-human Fc) at 4 nM: 252 MFI
- MFI (anti-human Fc) at 20 nM: 387 MFI
- MFI (anti-human Fc) at 100 nM: 810 MFI
- fold change of MFI vs WT CD80 at 20 nM: 2.1 fold
B13: CD80_202-Fc, variant CD80 IgV-Fc E7H/H18L/V20I/T28Y/D46S/A71G (Fc fusion)
chain: B2 chain with E7H, H18L, V20I, D46S, L47M, A71G
notes: as for B2

- MFI (anti-human Fc) at 0.8 nM: 216 MFI
- MFI (anti-human Fc) at 4 nM: 319 MFI
- MFI (anti-human Fc) at 20 nM: 633 MFI
- MFI (anti-human Fc) at 100 nM: 1470 MFI
- fold change of MFI vs WT CD80 at 20 nM: 3.5 fold
B14: CD80_180-Fc, variant CD80 IgV-Fc E10G/V11W/T28Y/M47L (Fc fusion)
chain: B2 chain with E10G, V11W
notes: as for B2
